Among all 150,000 compounds or so, about 540 (0.36%) showed an effect of 50% or more. The list shows a part of the results.
These compounds were tested on Plasmodium falciparum (assay: Primary screen in NF54 nanoGlo assay, in single point, at 2uM, 72h; a lower Z score goes with more inhibition). Details: timepoint 72 hour.
Format: functional, Erythrocyte

Structure (SMILES)	% Inhibition [%]	Z score
Cc1noc(C)c1CN1C[C@H]2CC[C@@H](C1)N(C(=O)c1cc(C(C)C)oc1C)C2	2	-0.35
COc1cc([C@H]2C(=O)N(C3CCCC3)CC(=O)N2C2CCCCCCC2)ccc1OC(C)C	-8	1.25
CCN(CC)[C@@H](CN=C(NC)NC)c1ccsc1	-3	0.3
CCc1ncc(CN2CCC[C@H](NS(=O)(=O)c3ccccc3)CC2)cn1	-7	1.12
CCCn1ncnc1-c1cccc(C(=O)NCc2nnn[nH]2)c1	0	0
O=C1c2ccccc2C(=O)N1CCN1CCN(S(=O)(=O)c2ccccc2)CC1	-10	1.62
O=C(CN1CCOCC1)N1CCC[C@@H]1COc1ccccc1	-13	1.18
CCCn1c(C(=O)NCCc2ccccn2)cc2cc(NC(=O)c3ccc(C)cc3)ccc21	-11	1.35
C=CCn1cc(CN(C)CCCN2CCCCCC2)c(C)n1	-13	1.94
Cc1ccccc1-c1nc(OC(C)C)nn1-c1ccc(NC(=O)c2ccc3c(c2)OCO3)cc1	3	-0.34
COc1ccccc1CC(=O)NC[C@H]1CCS(=O)(=O)C1	4	-0.73
Cc1ccc(C(=O)Cn2nc3cnccn3c2=O)c(C)c1	12	-1.33
CN(C)C[C@@H]1COCCN(Cc2cc(C(C)(C)C)[nH]n2)C1	-16	1.72
CN1C(=O)C[C@H](NS(=O)(=O)CCc2ccc3c(c2)CCO3)C1=O	-1	0.11
COC(=O)c1cc(F)ccc1COc1nc(C)no1	-2	0.32
Cc1nn(C(C)C)cc1C(=O)N(C)Cc1ccc[nH]1	4	-0.76
O=C1NC[C@H](O)Cn2nc(C(=O)N3CCC(CCCc4ccccc4)CC3)cc21	-8	1.09
CCc1nc(N2CCN(S(=O)(=O)c3ccc(Cl)cc3)CC2)c2cnn(-c3ccccc3)c2n1	5	-1.03
C[C@]1(CCCO)CCCN1C(=O)Nc1cccnc1	-7	0.86
CC(=O)c1cc(-c2ncnn2C2Cc3ccccc3C2)c(=O)[nH]c1C	-11	1.53
c1ccc2oc(-c3noc(C45CCCN4CCC5)n3)cc2c1	-5	0.56

Structure (SMILES)	% Inhibition [%]	Z score
CCCCS(=O)(=O)NC1=NCN(CCO)CN1	-3	0.36
Cn1c(C2CC2)nc2cc(CNC(=O)CC3CC3)ccc21	-7	1.3
O=C1C[C@@H](c2ccccc2)N(Cc2ccncc2)CCCNCCN1	-9	1.07
O=C(Nc1cccnc1)c1c[nH]c(-c2ccccc2)n1	-9	1.69
O=C1C[C@H](C(=O)N2CCCn3nnnc32)CN1c1c(F)cccc1F	-1	0.23
N#Cc1cccc(S(=O)(=O)N2C(C(N)=O)CC3CCCCC32)c1 (centres undefined)	8	-1.2
COC(=O)[C@@H]1CCCCN1CC(=O)N(C(C)C)C(C)C	-1	0.12
O=C(NS(=O)(=O)C[C@H]1CCOC1)c1n[nH]c2c1CCCC2	-15	1.54
COc1ccc(CCNC(=O)Cn2c(-c3ccccc3)nc(C)cc2=O)cc1OC	3	-0.43
Cc1n[nH]cc1CN(C)CC1=CC[C@H]2C[C@@H]1C2(C)C	-5	0.79
Cc1cc2[nH]c3c(c2cc1C)C[C@@H](NC(=O)Cc1ccccc1C)CC3	-10	1.08
Cc1ncsc1CNC(=O)N[C@@H](C(C)C)C1(CO)CCC1	-8	0.95
O=C(c1cn(CC2(O)CCN(Cc3ccccc3)CC2)nn1)N1CCc2ccccc21	33	-3.71
N#Cc1cccc(C(=O)N2CCOc3ccc(N4CCCC4)cc3C2)c1	2	-0.48
CC1CCC(N(Cc2ccc(C(=O)N(C)C)[nH]2)C[C@H]2CCCO2)CC1 (some centres undefined)	-14	1.46
CCCCCNC(=O)N[C@@](C)(CC)c1nccs1	-9	1.54
Cc1ccc(-c2nc(N3CCN(CCO)CC3)ncc2-c2cccc(F)c2)cc1	-11	2.09
CC1CN(c2ccc3nnc(C(F)(F)F)n3n2)CC(C)O1 (centres undefined)	3	-0.29
CC(C)c1noc(CN2C[C@H]3COCC[C@@]3(O)[C@@H]3COCC[C@@H]32)n1	-20	2.03
NC(=O)c1cc([C@@H]2CCCCN2C(=O)Cn2cnc3ccccc32)n[nH]1	9	-1.12
O=C(Nc1cccnc1)N[C@H](c1ccccc1)C1(CO)CCOCC1	2	-0.33

Reference: ChEMBL document CHEMBL4888484, “Replenishing the malaria drug discovery pipeline: Screening and hit evaluation of the MMV Hit Generation Library 1 (HGL1) against asexual blood stage Plasmodium falciparum ,using a nano luciferase reporter read-out” (2022)
